# According to PubChem BioAssay AID1476 (National Center for Advancing Translational Sciences (NCATS), 2009):
# About 4,500 (2.2%) of roughly 200,000 compounds were called active. The shares of active, inactive and inconclusive entries below differ from those in the screen. Calls follow the shape of the dose curve; as a rule, active = well fitted inhibition curve with a large enough effect; inconclusive = small, poorly fitted or top-dose-only effect, or effect the other way; inactive = flat fitted curve, though single readings scatter. Potencies of inconclusive entries are doubtful fits and often do not repeat.
# Target: Cruzipain (Trypanosoma cruzi) (UniProt P25779)
# Chain of UniProt P25779 (P25779 whole entry, looked up): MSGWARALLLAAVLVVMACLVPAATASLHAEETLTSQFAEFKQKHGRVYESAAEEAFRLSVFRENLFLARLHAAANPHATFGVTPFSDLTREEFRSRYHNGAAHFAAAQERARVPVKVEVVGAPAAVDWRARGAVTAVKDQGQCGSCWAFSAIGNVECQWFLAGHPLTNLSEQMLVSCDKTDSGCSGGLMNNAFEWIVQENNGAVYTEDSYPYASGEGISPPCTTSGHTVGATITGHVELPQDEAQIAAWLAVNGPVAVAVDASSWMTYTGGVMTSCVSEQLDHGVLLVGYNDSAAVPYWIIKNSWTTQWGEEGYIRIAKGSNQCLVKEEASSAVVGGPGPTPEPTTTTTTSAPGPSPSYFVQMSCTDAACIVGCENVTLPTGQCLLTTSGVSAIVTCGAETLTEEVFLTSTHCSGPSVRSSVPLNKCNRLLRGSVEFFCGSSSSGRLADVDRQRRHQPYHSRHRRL
# Experiment: qHTS Assay for Promiscuous and Specific Inhibitors of Cruzain (without detergent); also: nearly all actives have a fitted effect of over 40% in size;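 as to max response, negative = inhibition: plate controls were enzyme without inhibitor for no effect and buffer without enzyme for full effect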
# Settings: purified cruzain, Z-FR-AMC fluorescence, no detergent
# In short: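 Detergent-free condition (0.00005% Triton X-100) in acetate buffer pH 5.5 with DTT. 1.5 nM enzyme and compound were pre-mixed 15 min, then 2 uM Z-FR-AMC substrate added; reaction progress from fluorescence change between first and third reads (60 s).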
# Potency is read from the fitted curve at half-maximal effect; tags tell the direction and shape of the fitted curve.
SMILES,"max response, negative = inhibition",Potency
O=C(c1cccnc1)N1CCN(Cc2cccc(F)c2)CC1,inactive: -17.3%,–
NC(=O)C1(N2CCCCC2)CCN(C(=O)Nc2ccc(F)cc2)CC1,inactive: 9.85%,–
COc1ccc(-c2nc3c(c(SCC(=O)Nc4ccccc4F)n2)Cc2cc(C)ccc2O3)cc1,inactive: -7.2%,–
Cc1nc2ccccn2c1C(=O)N=Nc1c(O)[nH]c2ccccc12,–,"inconclusive: 5.01 µM [activator, single point]"
COc1ccc(-n2c(C)cc(C(=O)COC(=O)Cn3cnc4ccccc43)c2C)cc1,–,"inconclusive: 31.6 µM [inhibitor, single point]"
CCOc1ccc(NC(=O)c2ccc3c(c2)CCN3S(=O)(=O)c2ccc(Cl)cc2)cc1,–,"inconclusive: 39.8 µM [inhibitor, single point]"
COCC(=O)Nc1sc2c(c1C(=O)OC)CCC(C)C2 (centres undefined),–,"inconclusive: 31.6 µM [activator, single point]"
Cc1cc(C)cc(NC(=O)CCCn2c3ccccc3c(=O)c3ccccc32)c1,inactive: -22.1%,–
Cc1ccccc1C(=O)N1CCC(C(=O)Nc2ccc(S(=O)(=O)N3CCCC3)cc2)CC1,–,"inconclusive: 31.6 µM [activator, single point]"
COc1cccc(Nc2nc(C)cc(C)c2C#N)c1,inactive: -8.58%,–
COc1ccc(C(=O)Nc2nc3c(s2)CCCC3)cc1Cl,–,"inconclusive: 31.6 µM [inhibitor, single point]"
COC(CNC(=O)c1cc(C(=O)c2c(-c3c(Cl)cccc3Cl)noc2C)c[nH]1)OC,–,"inconclusive: 39.8 µM [activator, single point]"
CC(=O)Nc1nonc1-c1nnc(SCC(=O)N(C)c2ccccc2)n1C,inactive: 2.61%,–
CCN(c1cccc(C)c1)S(=O)(=O)c1ccc2[nH]cc(C(=O)NCCCOC)c(=O)c2c1,–,"inconclusive: 25.1 µM [activator, single point]"
Cc1ccc(CNC(=O)CN(C)S(=O)(=O)c2cccc3nsnc23)cc1,–,"inconclusive: 3.98 µM [inhibitor, single point]"
N#CC1(Cc2ccc([N+](=O)[O-])cc2)c2ccccc2C=CN1C(=O)c1ccccc1 (centres undefined),–,active: 25.1 µM
COc1ccc(C2(CNC(=O)/C=C\c3ccco3)CCCC2)cc1OC,–,"inconclusive: 31.6 µM [activator, single point]"
CCn1c2ccccc2c2cc(N=C3SC(CC(=O)Nc4ccccc4OC)C(=O)N3CCOC)ccc21 (centres undefined),inactive: 0.424%,–
COC(=O)c1scc(-c2ccc(C)cc2)c1S(=O)(=O)Nc1cc(OC)c(OC)c(OC)c1,–,"inconclusive: 39.8 µM [activator, single point]"
